Reference: article PMC4336329 (PLoS ONE, 2015)
The whole screen tested about 310,000 compounds, of which about 2,200 (0.71%) showed an effect of 50% or more. Effects have a minus sign here. This is one part of the list.

These compounds were tested against human ether-à-go-go-related gene (hERG) potassium channel (human, UniProt Q12809) (assay: primary screen, population patch clamp on CHO cells stably expressing hERG).
human ether-à-go-go-related gene (hERG) potassium channel, sequence (Q12809 whole entry, looked up): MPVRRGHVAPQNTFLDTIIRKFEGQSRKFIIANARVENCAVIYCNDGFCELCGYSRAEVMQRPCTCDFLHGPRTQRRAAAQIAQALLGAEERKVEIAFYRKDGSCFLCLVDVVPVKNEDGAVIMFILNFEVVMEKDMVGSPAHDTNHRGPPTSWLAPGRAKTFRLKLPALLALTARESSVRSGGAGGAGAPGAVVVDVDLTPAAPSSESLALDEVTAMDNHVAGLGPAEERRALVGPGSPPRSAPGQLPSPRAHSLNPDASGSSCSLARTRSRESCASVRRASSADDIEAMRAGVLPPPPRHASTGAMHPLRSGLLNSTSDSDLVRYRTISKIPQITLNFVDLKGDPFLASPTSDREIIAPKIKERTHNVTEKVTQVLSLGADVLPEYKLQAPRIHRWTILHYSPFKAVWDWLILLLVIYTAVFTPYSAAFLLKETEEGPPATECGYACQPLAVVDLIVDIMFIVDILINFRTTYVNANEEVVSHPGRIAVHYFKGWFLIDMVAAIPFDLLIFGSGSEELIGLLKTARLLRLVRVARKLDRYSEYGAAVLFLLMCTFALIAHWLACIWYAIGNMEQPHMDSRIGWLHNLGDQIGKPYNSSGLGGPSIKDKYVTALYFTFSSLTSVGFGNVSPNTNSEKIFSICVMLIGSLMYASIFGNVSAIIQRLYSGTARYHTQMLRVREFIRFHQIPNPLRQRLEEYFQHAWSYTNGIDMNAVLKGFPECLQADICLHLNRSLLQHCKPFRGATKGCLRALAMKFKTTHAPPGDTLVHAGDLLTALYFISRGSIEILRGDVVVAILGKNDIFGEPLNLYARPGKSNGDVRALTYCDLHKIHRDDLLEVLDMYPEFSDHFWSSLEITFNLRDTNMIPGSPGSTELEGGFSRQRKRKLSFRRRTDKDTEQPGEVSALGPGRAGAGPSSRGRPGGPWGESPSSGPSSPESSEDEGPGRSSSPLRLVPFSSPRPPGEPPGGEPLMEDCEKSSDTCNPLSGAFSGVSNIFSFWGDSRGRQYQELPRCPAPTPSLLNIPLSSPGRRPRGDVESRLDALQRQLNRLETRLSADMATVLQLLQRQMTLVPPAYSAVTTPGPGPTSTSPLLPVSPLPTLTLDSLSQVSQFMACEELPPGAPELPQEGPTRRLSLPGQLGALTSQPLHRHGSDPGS

Compound	hERG current change (%, negative = inhibition) at 1uM
O=C(NC(=S)Nc1ccc(S(=O)(=O)N2CCCCC2)cc1)c1ccccc1	3.31%
Cc1ccc(C)c(OCc2cc(C(=O)N3CCC(N4CCCC(O)C4)CC3)no2)c1 (centres unmarked)	-2.1%
CCOC(=O)C1=C(C)NC(C)=C(C(=O)OCC)C1C(=O)OCC(=O)N(CC)C1CCS(=O)(=O)C1 (centres unmarked)	-5.58%
CN1CCN(CC(O)COc2ccc(OCC(O)CN3CCN(C)CC3)cc2)CC1 (centres unmarked)	10.2%
COc1ccc(-c2csc(N(CC3CCCO3)C(=O)c3ccccc3)n2)cc1 (centres unmarked)	-0.515%
COCCn1c(SCC(=O)N2CCCC2)nnc1C(C)C	11.9%
COC(=O)c1[nH]c2cccc(C)c2c1NC(=O)CN1CCN(c2ccccc2OC)CC1	8.2%
CC(C)C(=O)Nc1c(-c2ccc(Cl)cc2)c(=O)c2ccccc2n1C	13.8%
COc1ccccc1CNC(=O)c1cn(C)c2ccc(S(=O)(=O)N3CCCC3)cc2c1=O	-4.16%
CCC(C)(C)n1nnnc1C(c1cc2cccc(C)c2[nH]c1=O)N1CCCC1 (centres unmarked)	12.3%
CCc1sc(C(=O)Nc2ccsc2C(=O)OC)cc1Br	-10%
C=CCNC(=S)N1CCN(c2ncc(C(F)(F)F)cc2Cl)CC1	-2.4%
O=C1N/C(=N/S(=O)(=O)c2ccccc2)S/C1=C/c1cccnc1	2.05%
COc1ccccc1OCC(=O)OCC(=O)NCCN1C(=O)CSC1=O	1.45%
O=C(NC1CCCCCC1)C(=S)NC1CCCCC1	7.2%
CCCCN(CC)C(=O)Cn1c(=O)sc2ccccc21	1.04%
COc1ccc(CCNC(=O)c2ccc(-c3cccc([N+](=O)[O-])c3)o2)cc1OC	5.08%
COc1cc2c(cc1OC)C(c1ccccc1C)CC(=O)N2 (centres unmarked)	10.2%
CC(C)(C)OC(=O)N1CC=C2C(C#N)=C(N)C(C#N)(C#N)[C@H](c3cccnc3)[C@H]2C1	8.09%
O=C(Nc1cccc(-c2nnc(-c3ccccc3)o2)c1)C1CCCO1 (centres unmarked)	-2.42%
COCC(=O)Nc1ccc([N+](=O)[O-])cc1C	9.23%
CCc1cccc2c(C(=O)COC(=O)C3=NNC(=O)CC3)c[nH]c12	-13.2%

Compound	hERG current change (%, negative = inhibition) at 1uM
COC(=O)c1ccc2nc(NC(=O)C3CC3)sc2c1	15.4%
Cc1ccc(C)c(N=C2NC(=O)CS2)c1	15.7%
COc1ccc(S(=O)(=O)Nc2ccc(F)cc2)c(C)c1C	7.15%
CN(C(=O)c1cc2nc(-c3ccco3)cc(C(F)(F)F)n2n1)C1CCCCC1	-4.82%
CCCc1ccc(Oc2coc3cc(OCC(=O)Nc4ccccc4C)ccc3c2=O)cc1	8.41%
COc1ccc(C2=Nn3c(nnc3-c3ccncc3)SC2)cc1	-13.3%
Cc1ccc(S(=O)(=O)NC(C)c2ccccc2)cc1[N+](=O)[O-] (centres unmarked)	14%
O=C(CSc1ccc(Cl)cc1)NCc1ccco1	10.9%
COc1ccc(/C=N/NC(=O)C(=O)N2CCCCCC2)cc1O	-0.179%
Cc1nc([N+](=O)[O-])c(Sc2nc3ccccc3[nH]2)n1Cc1ccccc1	7.3%
Cc1ccc(S(=O)(=O)N(C)CC(=O)O/N=C(\N)c2ccc([N+](=O)[O-])cc2)cc1	-9.52%
Cc1cccc(N(Cc2cc(=O)[nH]c3ccccc23)C(=O)CCl)c1	17.9%
C=CCSc1nccc(-c2cc(Cl)sc2Cl)n1	-7.75%
Cc1cccc(/C=C\c2nc3ccccc3c(=O)[nH]2)c1	13.9%
COc1ccc(NC(=O)c2sccc2SCc2cccc(C(F)(F)F)c2)cc1	13.3%
CCC(=O)Nc1cc(C(C)(C)C)ccc1C(C)=O	18.4%
COc1ccc(C2NC(=O)c3ccccc3N2)cc1 (centres unmarked)	17.7%
CSc1nc(N2CCN(C)CC2)c2c(c1C#N)CC(C)(C)OC2	-14.5%
COCCn1c(SCC(=O)N2CCCCC2)nc2c([nH]c3ccccc32)c1=O	-3.41%
O=C(O)CCC(=O)N1CCN(c2nc(-c3ccccc3)c3ccccc3n2)CC1	15%
CC1C(=O)Nc2ccccc2N1C(=O)c1ccc(F)cc1 (centres unmarked)	14.1%
Cc1ccc(S(=O)(=O)N2CCOCC2)cc1C(=O)Nc1cccc(C(=O)NC2CC2)c1	5.57%
